# Measured values from patent US20220298214A1 (XINTRUM PHARMACEUTICALS, published 2022).
# T1: GIP receptor (UniProt P48546 22-466, limits assumed)
# T1 sequence (looked up): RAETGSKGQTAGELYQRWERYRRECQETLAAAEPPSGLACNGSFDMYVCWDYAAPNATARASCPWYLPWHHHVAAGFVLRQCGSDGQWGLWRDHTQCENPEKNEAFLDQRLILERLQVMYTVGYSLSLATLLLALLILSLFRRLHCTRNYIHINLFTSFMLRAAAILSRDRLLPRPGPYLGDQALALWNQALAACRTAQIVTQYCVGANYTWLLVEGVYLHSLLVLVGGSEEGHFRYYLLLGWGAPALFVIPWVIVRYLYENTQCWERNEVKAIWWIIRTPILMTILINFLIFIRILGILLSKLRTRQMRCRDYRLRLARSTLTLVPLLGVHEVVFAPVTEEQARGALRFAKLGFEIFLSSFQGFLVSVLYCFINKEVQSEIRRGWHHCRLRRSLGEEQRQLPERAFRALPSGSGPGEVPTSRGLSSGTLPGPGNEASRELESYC
# Legend:
# [1] = molecular target: GLP-1 receptor (UniProt P43220); assay: cell-based or functional assay
# [2] = molecular target: T1, GIP receptor; assay: cell-based or functional assay
binder,measurement,setting,value
double-receptor agonist protein GGF7 (ligand) YGEGTFTSDYSIYLDKQAQRAFVEWLLAQGPSSGAPPPSGGGGSGGGGSGGGGSA[human IgG4 Fc with S228P F234A L235A (EU numbers) skipped],"EC50 value (pM), luciferase reporter gene (CRE-Luc) in HEK293-GLP1R-CRE-Luc cells",[1],46.1 pM
same,"EC50 value (pM), cAMP production in CHO-K1-GIPR cells",[2],35.3 pM
